# From publication PMC4336329 (PLoS ONE, 2015)
# The whole screen tested about 310,000 compounds, of which about 14,000 (4.5%) showed an effect of 50% or more. The effect is printed as a negative number. The list shows a part of the results.
# Target: human ether-à-go-go-related gene (hERG) potassium channel (human, UniProt Q12809)
# Assay: primary screen, population patch clamp on CHO cells stably expressing hERG
# 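Further: peak tail current of the secondary pulse compared with the same well before compound.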
# Sequence of human ether-à-go-go-related gene (hERG) potassium channel (Q12809 whole entry, looked up): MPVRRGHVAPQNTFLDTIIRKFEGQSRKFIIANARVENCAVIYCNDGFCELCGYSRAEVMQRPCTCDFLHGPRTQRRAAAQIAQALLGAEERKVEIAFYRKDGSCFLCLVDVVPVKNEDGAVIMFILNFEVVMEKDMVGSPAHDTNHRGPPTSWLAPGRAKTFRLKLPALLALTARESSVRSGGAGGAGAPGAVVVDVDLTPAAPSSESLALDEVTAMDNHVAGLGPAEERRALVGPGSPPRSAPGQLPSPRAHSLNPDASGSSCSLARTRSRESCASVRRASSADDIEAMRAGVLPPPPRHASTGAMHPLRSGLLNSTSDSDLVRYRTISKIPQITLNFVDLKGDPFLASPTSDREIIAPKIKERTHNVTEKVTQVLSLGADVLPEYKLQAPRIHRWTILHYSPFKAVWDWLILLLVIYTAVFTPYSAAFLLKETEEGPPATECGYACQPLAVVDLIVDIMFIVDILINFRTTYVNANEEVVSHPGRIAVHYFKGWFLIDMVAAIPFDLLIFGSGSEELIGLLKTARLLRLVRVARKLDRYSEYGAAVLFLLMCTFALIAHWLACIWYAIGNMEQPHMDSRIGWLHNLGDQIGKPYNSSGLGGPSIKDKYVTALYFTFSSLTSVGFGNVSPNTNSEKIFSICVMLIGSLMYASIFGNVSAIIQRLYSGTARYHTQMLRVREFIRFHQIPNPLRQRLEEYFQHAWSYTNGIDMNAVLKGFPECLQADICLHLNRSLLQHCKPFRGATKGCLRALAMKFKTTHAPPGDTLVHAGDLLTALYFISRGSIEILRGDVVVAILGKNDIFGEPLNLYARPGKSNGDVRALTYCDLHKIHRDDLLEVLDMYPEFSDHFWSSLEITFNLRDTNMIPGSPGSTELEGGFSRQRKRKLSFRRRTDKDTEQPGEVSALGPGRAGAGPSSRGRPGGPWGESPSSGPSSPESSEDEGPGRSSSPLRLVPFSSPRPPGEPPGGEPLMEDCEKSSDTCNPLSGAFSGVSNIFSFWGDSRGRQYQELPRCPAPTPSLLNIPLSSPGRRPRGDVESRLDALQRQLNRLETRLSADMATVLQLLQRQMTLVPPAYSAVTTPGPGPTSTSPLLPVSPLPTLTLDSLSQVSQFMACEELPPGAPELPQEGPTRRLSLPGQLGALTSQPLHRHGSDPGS
row,Structure (SMILES),"hERG current change (%, negative = inhibition) at 10uM"
1,Cc1ccc(N(CC(=O)Nc2ccc(C)cc2C)S(=O)(=O)N2CCCC2)cc1,-28.3%
2,O=C(Cn1nnc2ccccc21)Nc1ccccc1[N+](=O)[O-],4.51%
3,CCN(C(=O)COC(=O)c1cccnc1Nc1ccccc1F)C1CCS(=O)(=O)C1 (stereo not drawn),-9.99%
4,CCOC(=O)c1sc(=S)n(-c2cccc(C(F)(F)F)c2)c1SC,-4.41%
5,COc1cccc(-c2c(C(=O)N/N=C/c3cccnc3)nnn2-c2nonc2N)c1,14.8%
6,COc1ccc(NC(=O)c2cccc(Cl)c2)c[n+]1[O-],17.1%
7,Cc1ccc(NC(=O)CCC(=O)c2cccs2)nc1,-0.376%
8,CCc1ccccc1NC(=O)NNC(=O)CCc1ccccc1,7.74%
9,Cc1nn(C(=O)c2cc3sccc3[nH]2)c(C)c1C,7.83%
10,CSc1ncccc1C(=O)Nc1nccs1,-22.8%
11,CC(=O)Nc1ccc(NC(=O)C2CCCN2C(=O)Nc2ccc(F)cc2)cc1 (stereo not drawn),3.44%
12,O=C1NC(c2cccc(Cl)c2)Nc2ccccc21 (stereo not drawn),21.8%
13,O=C(NCCN1C(=O)S/C(=C\c2cccs2)C1=O)c1ccc(=O)[nH]c1,-15.5%
14,Cc1[nH]c(=O)[nH]c(=O)c1S(=O)(=O)N1CCC(C(=O)NC(C)c2ccccc2)CC1 (stereo not drawn),7.02%
15,Cc1nc(CSc2ccc(Cl)cc2)cs1,13.9%
16,Cc1cccc(N2C(=O)c3cccc4c(N(C)CCO)ccc(c34)C2=O)c1,-16.1%
17,CCc1nc(SCc2ccccc2C#N)n[nH]1,13.4%
18,Cn1nnnc1SCC(=O)N(C1CCCCC1)C1CCCCC1,2.23%
19,C=C(C)Cn1c(=O)c2c(nc3n2CCN3c2cccc(Cl)c2C)n(C)c1=O,-3.63%

row,Structure (SMILES),"hERG current change (%, negative = inhibition) at 10uM"
1,O=C(NCCc1ccco1)C(=O)NCC1OCCCN1S(=O)(=O)c1ccc(Cl)cc1 (stereo not drawn),-0.416%
2,CNc1ccccc1C(=O)OC(C)C(=O)Nc1ccc(S(=O)(=O)N2CCCC2)cc1 (stereo not drawn),12.4%
3,CCOCc1nnc(NC(=O)c2ccc(OC)cc2)s1,7.73%
4,COC(=O)C1Cc2ccccc2CN1C(=O)CCl (stereo not drawn),3.84%
5,CCCCCN=C(N)N/N=C/c1c[nH]c2ccc(OC)cc12.O=C(O)/C=C\C(=O)O,-37.9%
6,CNC(=O)CSc1nnc(C2CC2)n1-c1ccccc1,11.8%
7,O=C1c2ccccc2C(=O)N1c1ccccc1S(=O)C(F)(F)F (stereo not drawn),-4.51%
8,Cl.O=C(Nc1ccc(Br)cn1)c1ccc(Br)s1,20.2%
9,COc1cccc(C(=O)NC2CCN(CC(=O)NCc3ccccc3F)CC2)c1,-5.7%
10,Cc1n[nH]c(=S)n1/N=C/c1cccc(OCc2ccccc2)c1,22.3%
11,O=C(COC(=O)c1cccc(S(=O)(=O)N2CCOCC2)c1)c1ccccc1,10.8%
12,O=C(Oc1ccccc1C(=S)N1CCOCC1)c1cccc([N+](=O)[O-])c1,9.29%
13,CCOc1ccc(C)cc1S(=O)(=O)n1ccnc1,6.45%
14,CN(C(=O)COC(=O)c1cc(S(=O)(=O)N(C)C)ccc1Cl)C1CCS(=O)(=O)C1 (stereo not drawn),2.56%
15,Cc1ccc(NC(=O)CN2CCC(NC(=O)Cc3ccccc3)CC2)c(C)c1,-10.9%
16,CCNc1nc(Oc2ccc(=O)n(-c3ccccc3)n2)nc(N2CCOCC2)n1,-4.53%
17,Cc1ccc(-n2c(SCC(=O)Nc3ccc(C(=O)O)cc3)nnc2-c2ccncc2)cc1,9.02%
18,NC(=O)C1CCCN(C(=S)Nc2ccccc2)C1 (stereo not drawn),8.77%
19,O=C1Nc2ccc(Br)cc2/C1=C/C1CC=CCC1 (stereo not drawn),-1.66%

row,Structure (SMILES),"hERG current change (%, negative = inhibition) at 10uM"
1,Cc1ccc(NC(=O)CN(C)C(=O)Cc2ccc(Cl)cc2Cl)cc1,12.4%
2,O=C(NCC1CCCO1)c1ccccc1S(=O)(=O)c1ccc([N+](=O)[O-])cc1 (stereo not drawn),9.43%
3,COc1ccc(-c2csc(NC(=O)CSC(C)C(=O)Nc3cc(C)on3)n2)cc1OC (stereo not drawn),-6.18%
4,Cc1cc(C)c(NC(=O)Cn2ncc3ccccc32)c(C)c1,15.2%
5,Cn1cnc([N+](=O)[O-])c1Nc1cccc(O)c1,9.93%
6,O=C(O)Cc1cn(-c2ccccc2)nc1-c1ccc(Cl)cc1,10.7%
7,Cc1ccc2cccc(OC(=O)N(C)c3ccccc3)c2n1,5.2%
8,COc1cc(OC)cc(C(=O)NC(=S)NNC(=O)c2cnccn2)c1,6.54%
9,CCn1nc(C)cc1-c1nnc(SCC(=O)Nc2ccccc2)n1CCCOC,16.2%
10,COc1ccc(N(C(=O)c2ccco2)S(=O)(=O)c2ccc(F)cc2)cc1,-27.3%
11,COCCNC(=O)/C(C#N)=C\c1ccc(CNS(=O)(=O)c2ccccc2)o1,25%
12,CCn1cc(C(=O)N2CCN(c3cccc(C)c3C)CC2)c(=O)c2ccc(C)nc21,-12.9%
13,COc1ccc(S(=O)(=O)N2CCCCCC2)cc1N(C)S(=O)(=O)c1ccc(C)cc1,-39.7%
14,O=C(Nc1cccc(-c2cn3ccccc3n2)c1)c1cnccn1,2.16%
15,O=C(NCCO)c1cc2c([nH]c3ccccc32)c(-c2ccccc2)n1,-3.19%
16,Cc1ccc2[nH]c(=O)c(C3C(C#N)=C(N)Oc4c3ccc3cccnc43)cc2c1 (stereo not drawn),-11.8%
17,Cc1cccc(Oc2ccccc2NC(=O)C2=COCCO2)c1,-18.4%
18,O=C(Nc1ccccc1)O[C@@H]1C[C@H]2CCC(=O)N3CC[C@@H](C1)[C@@H]23,1.87%
19,S=c1[nH]nc(COc2ccccc2)n1/N=C/c1ccc(Br)s1,-18.8%
